# The supplement of paper PMC10126150
# Sequences with one replicate were seen in a single cluster, so their values are uncertain.
# System: ATP
# Assay: switch fluorescence ratio, 500 uM ATP over buffer (Cy3 cluster intensity, sum of 5 cycles each) (fold (ratio)); higher = stronger signal-on switching upon ATP binding; sequences stand for … in TCGTCGGCAGCGTCAGATGTGTATAAGAGACAGTTTTTTTTTTTTTTTTTTTTTTTTT…TC
# Settings: aptamer strand: ATP DNA aptamer (quencher-CACCTGGGGGAGTATTGCGGAGGAAGG + anchor), 100 nM annealed; ATP concentration: 500 uM; one replicate
# Procedure, shortened: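 Exposure to 500 uM ATP lasted 15 min at 22 °C before imaging, and a selection-buffer image was taken beforehand, for Cy3-labelled switching-strand clusters on a modified Illumina MiSeq flow-cell annealed to 100 nM quencher-labelled ATP aptamer. Five buffer/ATP cycles were run with NaOH stripping and re-annealing between them. The fluorescence ratio per cluster is summed target-cycle over summed buffer-cycle Cy3 intensity, averaged per switch-domain sequence. Clusters outside 100-1000 RFU were excluded.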
row,Sequence,switch fluorescence ratio
1,GTTGGGCAC,0.972
2,GTTGGGCAGT,1.01
3,GTTGGGGAAC,1.02
4,GTTGGGGGCT,1.01
5,GTTGGTAGAA,1.02
6,GTTGGTCCCC,0.996
7,GTTGGTCTGC,0.995
8,GTTGGTGGAG,1.03
9,GTTGGTGGCA,1
10,GTTGGTGTCG,1.02
11,GTTGTATTCA,0.992
12,GTTGTTCCCT,1.05
13,GTTGTTGTGC,1.04
14,GTTGTTTGCT,1
15,GTTGTTTGGA,0.984
16,GTTTACGTAA,1.07
17,GTTTACTTCA,1.03
18,GTTTAGAATC,1.01
19,GTTTAGTAGA,1.05
20,GTTTATAATA,1.02
21,GTTTATACGG,0.99
22,GTTTATCAGT,0.977
23,GTTTATCCGC,1.39
24,GTTTATCTTT,1.01
25,GTTTATGTAT,0.992
26,GTTTCATGAG,0.965

row,Sequence,switch fluorescence ratio
1,GTTTCCTGTG,1.42
2,GTTTCGAGGA,0.939
3,GTTTGAGC,1.04
4,GTTTGATCTA,0.96
5,GTTTGCACAT,1.01
6,GTTTGGATGT,0.954
7,GTTTGGGGAA,0.972
8,GTTTGTACAA,0.971
9,GTTTTAAGCA,0.998
10,GTTTTATTA,1.02
11,GTTTTCGTCT,1.06
12,GTTTTGTGCG,1
13,GTTTTTAGAG,0.987
14,GTTTTTATCA,0.991
15,GTTTTTGGCC,1.06
16,GTTTTTGGG,0.976
17,GTTTTTGGGA,0.961
18,TAAAAAAATT,1.02
19,TAAAAAACAC,1.03
20,TAAAAAAGA,0.993
21,TAAAAAGGT,0.95
22,TAAAAAGTCG,1.06
23,TAAAAATAGT,0.957
24,TAAAACCGT,1.03
25,TAAAAGGCTC,0.971
26,TAAAAGTTCA,0.992

row,Sequence,switch fluorescence ratio
1,TAAAATGGCT,0.968
2,TAAAATTGGA,1.02
3,TAAACACATC,1.02
4,TAAACAGGGA,1.01
5,TAAACCGGCG,1.16
6,TAAACTTGGA,1.09
7,TAAAGAGGAG,0.979
8,TAAAGCAGCC,1.04
9,TAAAGCCTTC,1.31
10,TAAAGCGGCT,1.06
11,TAAAGCGTTA,1.01
12,TAAAGGGC,1.06
13,TAAAGGTAGC,1.03
14,TAAAGTCCAT,1.07
15,TAAAGTGAC,1.13
16,TAAAGTGCTA,1.01
17,TAAATAACCA,1.02
18,TAAATAAGTG,1.02
19,TAAATAGATG,0.981
20,TAAATCAGTG,1.02
21,TAAATCCCAG,0.987
22,TAAATGATGG,0.961
23,TAAATGTTGG,0.958
24,TAAATTCTTT,0.992
25,TAAATTGAGG,1.01
26,TAAATTGCCC,0.981

row,Sequence,switch fluorescence ratio
1,TAACAAATGT,0.987
2,TAACAAGGTG,1.26
3,TAACACCAAT,1.03
4,TAACACGTC,1.09
5,TAACAGGACG,0.967
6,TAACAGTTTT,1
7,TAACATGTGT,0.99
8,TAACCGTTTA,0.987
9,TAACGAAAAT,0.978
10,TAACGAAGAG,1.08
11,TAACGATTGT,0.992
12,TAACGGCGCC,0.965
13,TAACGGTCAT,1.03
14,TAACGTCGAT,1.01
15,TAACGTGCTA,0.984
16,TAACTAAGAA,1.02
17,TAACTCAGCG,1.04
18,TAACTCAGGG,1.03
19,TAACTCCGAA,1.8
20,TAACTCGTCT,1.02
21,TAACTCGTGT,0.954
22,TAACTCTAGC,0.987
23,TAACTCTCGA,1.02
24,TAACTGACAT,1.05
25,TAAGAAAAAG,1.11
26,TAAGAAAAGG,1.02

row,Sequence,switch fluorescence ratio
1,TAAGAAGTTG,0.989
2,TAAGACCGAC,1.6
3,TAAGAGATC,1.05
4,TAAGAGGGAC,0.964
5,TAAGAGTGTA,1.01
6,TAAGAGTTTG,0.98
7,TAAGATTGCC,1.06
8,TAAGCACACC,1.28
9,TAAGCAGAAG,1.06
10,TAAGCCCAGG,2.78
11,TAAGCCCATC,1.04
12,TAAGCCGACT,2.22
13,TAAGCGACGT,1.01
14,TAAGCGGGCC,1
15,TAAGGAACGA,0.992
16,TAAGGACTAA,1.02
17,TAAGGATGAT,1
18,TAAGGATTC,1.02
19,TAAGGCAAGT,1.01
20,TAAGGCAGAG,0.999
21,TAAGGCAGGG,0.975
22,TAAGGCCGCC,0.975
23,TAAGGCGCTG,0.97
24,TAAGGCGTCA,1.03
25,TAAGGCTCTC,0.982
26,TAAGGGACGG,0.997

row,Sequence,switch fluorescence ratio
1,TAAGGGCAGC,1.02
2,TAAGGTAAAG,0.974
3,TAAGGTAGTA,0.954
4,TAAGGTATGG,0.982
5,TAAGGTGAAT,1.05
6,TAAGGTGCCG,0.934
7,TAAGGTGTAT,1.07
8,TAAGGTGTGC,1.04
9,TAAGGTTAGA,1.04
10,TAAGTACGT,1.2
11,TAAGTAGAAA,0.965
12,TAAGTCAAAG,0.981
13,TAAGTGAGAG,0.953
14,TAAGTGGCAA,1.04
15,TAAGTGTTCC,1.04
16,TAATAACGGG,1.03
17,TAATAGCCAA,1
18,TAATATACC,1.05
19,TAATATGGTC,1.03
20,TAATATTTC,1.08
21,TAATCAGGGT,0.994
22,TAATCATTA,1.01
23,TAATCATTTT,0.978
24,TAATCCAT,0.974
25,TAATCCCGAT,0.936
26,TAATCGCTCT,1.05

row,Sequence,switch fluorescence ratio
1,TAATCGCTTA,0.977
2,TAATCGGTGC,0.988
3,TAATCTCTCT,0.989
4,TAATCTGGGG,0.981
5,TAATCTTTCA,1.03
6,TAATGAGTTC,1.01
7,TAATGCACGG,1.08
8,TAATGCATGG,1.01
9,TAATGCCAGC,0.981
10,TAATGCCCGC,0.999
11,TAATGGGCAC,1.12
12,TAATGGTGCC,1.02
13,TAATGGTTT,1.16
14,TAATGTTACC,1.04
15,TAATTACATA,1.07
16,TAATTAGGAC,1.05
17,TAATTATGTA,0.991
18,TAATTCCAGC,1
19,TAATTCCTCT,1.02
20,TAATTGAGGT,0.977
21,TAATTGGCCA,0.966
22,TAATTGTGAG,1.01
23,TAATTTCGTA,0.932
24,TAATTTGCCG,1.21
25,TAATTTGTA,1.01
26,TACAAAAATT,1.08

row,Sequence,switch fluorescence ratio
1,TACAAACACA,1.02
2,TACAAACTTT,1.06
3,TACAAATACT,3.75
4,TACAACATTA,1.07
5,TACAACCCCA,1.02
6,TACAAGATAA,1
7,TACAAGGCAC,1.07
8,TACAATGAGG,1.01
9,TACAATTCCC,0.997
10,TACAATTCTT,0.965
11,TACAATTTGT,0.921
12,TACACACTGG,1.11
13,TACACGCCAA,1.32
14,TACACGTCCG,1.12
15,TACACTGT,1.05
16,TACACTTCCA,1.09
17,TACAGATTTA,1.01
18,TACAGCAAC,1.49
19,TACATAGTAA,1.06
